Laboratory results taken from the supplement of paper PMC3694890.
± gives the uncertainty stated by the source. The list shows a part of the results. Phosphotyrosine is written y.

Target: GRB2 (endogenous complexes from cell lysate), P62993
Assay: GRB2 complex binding differential signal (pY peptide minus Ala control peptide) (fluorescence intensity units); higher = stronger GRB2 complex binding
Conditions: MCF7
Method: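 In situ synthesized µParaflo PepArray of 6-mer peptides, each starting with an N-terminal phosphotyrosine (lowercase 'y' = pY) followed by 5 native residues. Peptides are tethered to glass through a long linker. Chips were incubated overnight at 4°C with total cell lysate (1 mg in 1 mL) from MCF10A, MCF7, T47D or MDA-MB-231 cells. Bound endogenous GRB2-containing complexes were detected with rabbit anti-GRB2 and an Alexa647 secondary antibody. Signals are background-subtracted and averaged over replicate spots, then the matched Ala-substituted control peptide signal is subtracted (differential signal).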
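Further: phosphopeptide probes on the chip at 1–4 µM, lysate proteins bound in 20 mM Tris pH 7.0 buffer with 140 mM NaCl, 1% Triton X-100 and 5% glycerol.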

Binder	GRB2 complex binding differential signal
yEDPTQ [EPHA3_602/A1]	7380 ± 2600
yTTRGG [EPHA3_779/A1]	4220 ± 780
ySSCDT [EPHA3_937/A1]	526 ± 800
yVDPFT [EPHA4_596/A1]	1550 ± 670
yKDNFT [EPHA4_928/A1]	2060 ± 600
yIDPHT [EPHA5_650/A1]	11500 ± 3700
yTEIFM [EPHA5_982/A1]	616 ± 1900
yIDPET [EPHA7_608/A1]	3880 ± 790
yEDPNR [EPHA7_614/A1]	15200 ± 1100
yTTTGG [EPHA7_791/A1]	1910 ± 1500
yGEVYV [ABL2_299/A1]	160 ± 210
yEEPGR [EPHA8_616/A1]	6370 ± 1500
yWNMTN [EPHA8_839/A1]	6270 ± 1800
yIDPFT [EPHB1_594/A1]	363 ± 460
yEDPNE [EPHB1_600/A1]	2570 ± 470
yTSSLG [EPHB1_778/A1]	1320 ± 430
yRDSFL [EPHB1_928/A1]	482 ± 230

Same assay, conditions: MCF10A

Binder	GRB2 complex binding differential signal
yEDPTQ [EPHA3_602/A1]	3700 ± 580
yTTRGG [EPHA3_779/A1]	1540 ± 460
ySSCDT [EPHA3_937/A1]	115 ± 160
yVDPFT [EPHA4_596/A1]	560 ± 240
yKDNFT [EPHA4_928/A1]	1650 ± 540
yIDPHT [EPHA5_650/A1]	6130 ± 1700
yTEIFM [EPHA5_982/A1]	674 ± 400
yIDPET [EPHA7_608/A1]	2280 ± 530
yEDPNR [EPHA7_614/A1]	9760 ± 850
yTTTGG [EPHA7_791/A1]	4140 ± 740
yGEVYV [ABL2_299/A1]	-91 ± 510
yEEPGR [EPHA8_616/A1]	5300 ± 880
yWNMTN [EPHA8_839/A1]	5510 ± 1600
yIDPFT [EPHB1_594/A1]	375 ± 440
yEDPNE [EPHB1_600/A1]	2690 ± 580
yTSSLG [EPHB1_778/A1]	860 ± 350
yRDSFL [EPHB1_928/A1]	243 ± 150

Same assay, conditions: MDA-MB-231

Binder	GRB2 complex binding differential signal
yEDPTQ [EPHA3_602/A1]	3980 ± 510
yTTRGG [EPHA3_779/A1]	700 ± 360
ySSCDT [EPHA3_937/A1]	869 ± 310
yVDPFT [EPHA4_596/A1]	1700 ± 340
yKDNFT [EPHA4_928/A1]	781 ± 470
yIDPHT [EPHA5_650/A1]	2710 ± 440
yTEIFM [EPHA5_982/A1]	992 ± 420
yIDPET [EPHA7_608/A1]	1920 ± 540
yEDPNR [EPHA7_614/A1]	2720 ± 400
yTTTGG [EPHA7_791/A1]	1750 ± 630
yGEVYV [ABL2_299/A1]	600 ± 340
yEEPGR [EPHA8_616/A1]	1530 ± 450
yWNMTN [EPHA8_839/A1]	2140 ± 390
yIDPFT [EPHB1_594/A1]	1630 ± 580
yEDPNE [EPHB1_600/A1]	1850 ± 600
yTSSLG [EPHB1_778/A1]	1560 ± 370
yRDSFL [EPHB1_928/A1]	815 ± 420

Same assay, conditions: T47D

Binder	GRB2 complex binding differential signal
yEDPTQ [EPHA3_602/A1]	2410 ± 1600
yTTRGG [EPHA3_779/A1]	1570 ± 1200
ySSCDT [EPHA3_937/A1]	772 ± 1300
yVDPFT [EPHA4_596/A1]	2550 ± 1400
yKDNFT [EPHA4_928/A1]	259 ± 1700
yIDPHT [EPHA5_650/A1]	1880 ± 1000
yTEIFM [EPHA5_982/A1]	675 ± 1400
yIDPET [EPHA7_608/A1]	840 ± 1000
yEDPNR [EPHA7_614/A1]	1880 ± 2100
yTTTGG [EPHA7_791/A1]	1850 ± 900
yGEVYV [ABL2_299/A1]	302 ± 1200
yEEPGR [EPHA8_616/A1]	2130 ± 1800
yWNMTN [EPHA8_839/A1]	7260 ± 3600
yIDPFT [EPHB1_594/A1]	1660 ± 1100
yEDPNE [EPHB1_600/A1]	606 ± 1400
yTSSLG [EPHB1_778/A1]	1600 ± 1100
yRDSFL [EPHB1_928/A1]	337 ± 910
